From article PMC12820563, “FoxP3 forms a head-to-head dimer in vivo and stabilizes its multimerization on adjacent microsatellites”
The list shows a part of the results.

Target: T1, MBP-FoxP1dN (Mus musculus, UniProt P58462 326-579)
T1 sequence: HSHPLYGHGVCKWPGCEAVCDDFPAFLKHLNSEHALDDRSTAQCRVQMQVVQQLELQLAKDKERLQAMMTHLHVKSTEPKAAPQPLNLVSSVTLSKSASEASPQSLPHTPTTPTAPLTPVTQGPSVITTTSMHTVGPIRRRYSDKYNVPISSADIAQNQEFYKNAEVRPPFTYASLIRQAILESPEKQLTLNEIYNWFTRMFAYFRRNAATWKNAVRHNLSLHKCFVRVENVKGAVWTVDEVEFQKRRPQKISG
Assay: PD-seq (MBP pull-down with sequencing); 20 mM Tris-HCl pH 7.5, 100 mM NaCl, 1.5 mM MgCl2, 0.4 uM protein, 0.1 uM dsDNA library, 30 min, room temperature, amylose pull-down; high values mean tight binding
Conditions: protein: recombinant; tags: His6-MBP; chain copies: 2; dsDNA, one strand shown
Outline: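 E. coli-expressed mouse FoxP3 or FoxP1 fragment, N-terminus removed and tagged with His6-MBP, was used at 0.4 µM against 0.1 µM of a Klenow-filled degenerate double-stranded DNA library. After 30 min at room temperature in Tris pH 7.5 buffer with NaCl and MgCl2, complexes were pulled down on amylose resin and washed three times. Binding is pull-down over input reads-per-million enrichment from pooled replicates of the proteinase K-released, PCR-barcoded, Illumina-sequenced DNA.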

| Sequence | binding signal |
| --- | --- |
| GATGATTGTTCTCCCAGCTGATGAATTTAGTCGGTCGAGTAAACAAATTTTCCTAATCTTTCTGTTCAAGCGCCATCTAC | 0.848 RPM ratio (pull-down/input) |
| GATGATTGTTCTCCCAGCTGATGAATTCCAGTACTCGAGTAAACAAATTTTCCTAATCTTTCTGTTCAAGCGCCATCTAC | 0.857 RPM ratio (pull-down/input) |
| GATGATTGTTCTCCCAGCTGATGAATTGGGGGGGTCGAGTAAACAAATTTTCCTAATCTTTCTGTTCAAGCGCCATCTAC | 0.753 RPM ratio (pull-down/input) |
| GATGATTGTTCTCCCAGCTGATGAATTGCAGAGATCGAGTAAACAAATTTTCCTAATCTTTCTGTTCAAGCGCCATCTAC | 1.03 RPM ratio (pull-down/input) |
| GATGATTGTTCTCCCAGCTGATGAATTGGTATCCTCGAGTAAACAAATTTTCCTAATCTTTCTGTTCAAGCGCCATCTAC | 1.04 RPM ratio (pull-down/input) |
| GATGATTGTTCTCCCAGCTGATGAATTCACTCGCTCGAGTAAACAAATTTTCCTAATCTTTCTGTTCAAGCGCCATCTAC | 0.819 RPM ratio (pull-down/input) |
| GATGATTGTTCTCCCAGCTGATGAATTTCTAGCGTCGAGTAAACAAATTTTCCTAATCTTTCTGTTCAAGCGCCATCTAC | 0.92 RPM ratio (pull-down/input) |
| GATGATTGTTCTCCCAGCTGATGAATTTACTAGATCGAGTAAACAAATTTTCCTAATCTTTCTGTTCAAGCGCCATCTAC | 1.28 RPM ratio (pull-down/input) |
| GATGATTGTTCTCCCAGCTGATGAATTGTGATTCTCGAGTAAACAAATTTTCCTAATCTTTCTGTTCAAGCGCCATCTAC | 1.22 RPM ratio (pull-down/input) |
| GATGATTGTTCTCCCAGCTGATGAATTTTGGCGGTCGAGTAAACAAATTTTCCTAATCTTTCTGTTCAAGCGCCATCTAC | 0.799 RPM ratio (pull-down/input) |
| GATGATTGTTCTCCCAGCTGATGAATTGACATTTTCGAGTAAACAAATTTTCCTAATCTTTCTGTTCAAGCGCCATCTAC | 1.4 RPM ratio (pull-down/input) |
| GATGATTGTTCTCCCAGCTGATGAATTGTTTGTGTCGAGTAAACAAATTTTCCTAATCTTTCTGTTCAAGCGCCATCTAC | 2.77 RPM ratio (pull-down/input) |
| GATGATTGTTCTCCCAGCTGATGAATTGTTTGGCTCGAGTAAACAAATTTTCCTAATCTTTCTGTTCAAGCGCCATCTAC | 1.59 RPM ratio (pull-down/input) |
| GATGATTGTTCTCCCAGCTGATGAATTTAGTGTCTCGAGTAAACAAATTTTCCTAATCTTTCTGTTCAAGCGCCATCTAC | 1.04 RPM ratio (pull-down/input) |
| GATGATTGTTCTCCCAGCTGATGAATTCTCATCATCGAGTAAACAAATTTTCCTAATCTTTCTGTTCAAGCGCCATCTAC | 0.966 RPM ratio (pull-down/input) |
| GATGATTGTTCTCCCAGCTGATGAATTGAGGTTCTCGAGTAAACAAATTTTCCTAATCTTTCTGTTCAAGCGCCATCTAC | 0.826 RPM ratio (pull-down/input) |

| Sequence | binding signal |
| --- | --- |
| GATGATTGTTCTCCCAGCTGATGAATTAGTTTGGTCGAGTAAACAAATTTTCCTAATCTTTCTGTTCAAGCGCCATCTAC | 0.938 RPM ratio (pull-down/input) |
| GATGATTGTTCTCCCAGCTGATGAATTTGCTAGTTCGAGTAAACAAATTTTCCTAATCTTTCTGTTCAAGCGCCATCTAC | 1.05 RPM ratio (pull-down/input) |
| GATGATTGTTCTCCCAGCTGATGAATTTCCTCTCTCGAGTAAACAAATTTTCCTAATCTTTCTGTTCAAGCGCCATCTAC | 0.796 RPM ratio (pull-down/input) |
| GATGATTGTTCTCCCAGCTGATGAATTTTTGCTGTCGAGTAAACAAATTTTCCTAATCTTTCTGTTCAAGCGCCATCTAC | 1.59 RPM ratio (pull-down/input) |
| GATGATTGTTCTCCCAGCTGATGAATTTTCACATTCGAGTAAACAAATTTTCCTAATCTTTCTGTTCAAGCGCCATCTAC | 0.987 RPM ratio (pull-down/input) |
| GATGATTGTTCTCCCAGCTGATGAATTTTCCTCTTCGAGTAAACAAATTTTCCTAATCTTTCTGTTCAAGCGCCATCTAC | 0.86 RPM ratio (pull-down/input) |
| GATGATTGTTCTCCCAGCTGATGAATTGTATCCCTCGAGTAAACAAATTTTCCTAATCTTTCTGTTCAAGCGCCATCTAC | 1.09 RPM ratio (pull-down/input) |
| GATGATTGTTCTCCCAGCTGATGAATTAGAGCCGTCGAGTAAACAAATTTTCCTAATCTTTCTGTTCAAGCGCCATCTAC | 0.838 RPM ratio (pull-down/input) |
| GATGATTGTTCTCCCAGCTGATGAATTCCTCATTTCGAGTAAACAAATTTTCCTAATCTTTCTGTTCAAGCGCCATCTAC | 0.978 RPM ratio (pull-down/input) |
| GATGATTGTTCTCCCAGCTGATGAATTACCGACATCGAGTAAACAAATTTTCCTAATCTTTCTGTTCAAGCGCCATCTAC | 1.07 RPM ratio (pull-down/input) |
| GATGATTGTTCTCCCAGCTGATGAATTGAAGCAATCGAGTAAACAAATTTTCCTAATCTTTCTGTTCAAGCGCCATCTAC | 1.07 RPM ratio (pull-down/input) |
| GATGATTGTTCTCCCAGCTGATGAATTAAAAAAATCGAGTAAACAAATTTTCCTAATCTTTCTGTTCAAGCGCCATCTAC | 1.04 RPM ratio (pull-down/input) |
| GATGATTGTTCTCCCAGCTGATGAATTCGCCATATCGAGTAAACAAATTTTCCTAATCTTTCTGTTCAAGCGCCATCTAC | 0.887 RPM ratio (pull-down/input) |
| GATGATTGTTCTCCCAGCTGATGAATTTTAGAGTTCGAGTAAACAAATTTTCCTAATCTTTCTGTTCAAGCGCCATCTAC | 0.848 RPM ratio (pull-down/input) |
| GATGATTGTTCTCCCAGCTGATGAATTGTTCTTGTCGAGTAAACAAATTTTCCTAATCTTTCTGTTCAAGCGCCATCTAC | 1.19 RPM ratio (pull-down/input) |
| GATGATTGTTCTCCCAGCTGATGAATTGGGTAGATCGAGTAAACAAATTTTCCTAATCTTTCTGTTCAAGCGCCATCTAC | 0.868 RPM ratio (pull-down/input) |
